In experiment [1] the target is T1, RNF157 (human (endogenous in HEK293T)) (UniProt Q96PX1).
T1 sequence: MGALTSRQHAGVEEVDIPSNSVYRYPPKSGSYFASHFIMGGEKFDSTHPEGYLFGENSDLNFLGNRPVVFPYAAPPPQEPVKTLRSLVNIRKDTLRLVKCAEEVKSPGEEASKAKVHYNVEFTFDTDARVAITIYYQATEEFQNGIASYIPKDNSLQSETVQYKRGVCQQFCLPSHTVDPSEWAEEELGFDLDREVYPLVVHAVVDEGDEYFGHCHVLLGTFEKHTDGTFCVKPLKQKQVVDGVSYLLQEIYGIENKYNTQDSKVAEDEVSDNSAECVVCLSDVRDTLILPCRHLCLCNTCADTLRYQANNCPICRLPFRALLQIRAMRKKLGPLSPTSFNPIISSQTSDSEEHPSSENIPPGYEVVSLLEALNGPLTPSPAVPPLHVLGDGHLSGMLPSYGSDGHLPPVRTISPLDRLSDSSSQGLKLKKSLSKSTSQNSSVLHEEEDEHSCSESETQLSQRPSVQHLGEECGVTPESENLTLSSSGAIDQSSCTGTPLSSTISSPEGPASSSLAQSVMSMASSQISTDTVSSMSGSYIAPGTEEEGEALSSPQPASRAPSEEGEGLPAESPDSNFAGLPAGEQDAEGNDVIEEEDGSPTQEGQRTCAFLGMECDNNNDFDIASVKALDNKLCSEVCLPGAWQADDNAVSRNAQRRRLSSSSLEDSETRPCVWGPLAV
The experiment is described as follows: co-IP; HEK293T lysate; precipitated with anti-RNF157 (anti-IgG as control) and protein A/G beads, 4 hours at 4°C; western blot of the candidates.

Amino acid sequences for entries named in this document (tags omitted).
UniProt O14646: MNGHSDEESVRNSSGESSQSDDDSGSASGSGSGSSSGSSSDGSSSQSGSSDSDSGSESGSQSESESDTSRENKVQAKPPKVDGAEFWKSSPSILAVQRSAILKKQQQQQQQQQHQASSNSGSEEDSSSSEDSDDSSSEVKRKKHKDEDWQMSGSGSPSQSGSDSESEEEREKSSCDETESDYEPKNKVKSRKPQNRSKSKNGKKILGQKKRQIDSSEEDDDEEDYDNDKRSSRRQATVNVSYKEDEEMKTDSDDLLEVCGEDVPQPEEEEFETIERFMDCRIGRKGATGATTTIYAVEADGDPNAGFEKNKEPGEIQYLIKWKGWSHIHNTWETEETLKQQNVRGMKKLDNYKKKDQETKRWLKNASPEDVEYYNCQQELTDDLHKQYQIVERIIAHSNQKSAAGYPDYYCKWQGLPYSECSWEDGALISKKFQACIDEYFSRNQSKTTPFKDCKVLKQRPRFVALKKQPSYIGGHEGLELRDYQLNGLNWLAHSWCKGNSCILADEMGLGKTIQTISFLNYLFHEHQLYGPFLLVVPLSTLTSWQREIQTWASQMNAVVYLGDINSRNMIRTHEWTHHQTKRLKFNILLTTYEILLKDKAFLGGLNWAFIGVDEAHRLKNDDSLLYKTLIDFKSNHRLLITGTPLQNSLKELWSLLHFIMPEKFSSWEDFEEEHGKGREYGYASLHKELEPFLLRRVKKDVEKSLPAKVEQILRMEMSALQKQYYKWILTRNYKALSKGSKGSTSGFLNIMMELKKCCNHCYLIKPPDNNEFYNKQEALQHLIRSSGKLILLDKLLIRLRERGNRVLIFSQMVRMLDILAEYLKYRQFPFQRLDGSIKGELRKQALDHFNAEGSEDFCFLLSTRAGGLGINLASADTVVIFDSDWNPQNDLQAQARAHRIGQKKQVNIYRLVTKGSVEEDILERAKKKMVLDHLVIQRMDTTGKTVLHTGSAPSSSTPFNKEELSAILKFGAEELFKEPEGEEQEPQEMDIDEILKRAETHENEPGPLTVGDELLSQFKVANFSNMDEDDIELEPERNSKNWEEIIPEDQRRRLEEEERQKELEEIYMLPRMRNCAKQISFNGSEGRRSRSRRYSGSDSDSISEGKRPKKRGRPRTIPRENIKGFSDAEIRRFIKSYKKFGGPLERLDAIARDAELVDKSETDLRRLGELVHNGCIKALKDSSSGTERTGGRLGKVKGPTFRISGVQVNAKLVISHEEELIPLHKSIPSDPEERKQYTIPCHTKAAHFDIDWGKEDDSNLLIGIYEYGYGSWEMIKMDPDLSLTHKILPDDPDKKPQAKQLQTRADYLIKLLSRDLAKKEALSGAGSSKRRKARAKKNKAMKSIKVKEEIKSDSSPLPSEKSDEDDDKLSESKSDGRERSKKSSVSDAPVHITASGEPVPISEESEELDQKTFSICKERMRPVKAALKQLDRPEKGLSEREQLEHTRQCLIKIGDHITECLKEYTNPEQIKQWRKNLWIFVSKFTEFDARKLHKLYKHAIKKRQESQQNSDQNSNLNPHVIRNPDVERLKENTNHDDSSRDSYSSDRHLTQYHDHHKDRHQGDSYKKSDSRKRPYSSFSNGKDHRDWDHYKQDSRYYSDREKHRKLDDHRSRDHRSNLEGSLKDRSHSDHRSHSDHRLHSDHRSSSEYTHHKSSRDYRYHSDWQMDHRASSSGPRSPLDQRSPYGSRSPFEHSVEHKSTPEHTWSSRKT
UniProt P51116: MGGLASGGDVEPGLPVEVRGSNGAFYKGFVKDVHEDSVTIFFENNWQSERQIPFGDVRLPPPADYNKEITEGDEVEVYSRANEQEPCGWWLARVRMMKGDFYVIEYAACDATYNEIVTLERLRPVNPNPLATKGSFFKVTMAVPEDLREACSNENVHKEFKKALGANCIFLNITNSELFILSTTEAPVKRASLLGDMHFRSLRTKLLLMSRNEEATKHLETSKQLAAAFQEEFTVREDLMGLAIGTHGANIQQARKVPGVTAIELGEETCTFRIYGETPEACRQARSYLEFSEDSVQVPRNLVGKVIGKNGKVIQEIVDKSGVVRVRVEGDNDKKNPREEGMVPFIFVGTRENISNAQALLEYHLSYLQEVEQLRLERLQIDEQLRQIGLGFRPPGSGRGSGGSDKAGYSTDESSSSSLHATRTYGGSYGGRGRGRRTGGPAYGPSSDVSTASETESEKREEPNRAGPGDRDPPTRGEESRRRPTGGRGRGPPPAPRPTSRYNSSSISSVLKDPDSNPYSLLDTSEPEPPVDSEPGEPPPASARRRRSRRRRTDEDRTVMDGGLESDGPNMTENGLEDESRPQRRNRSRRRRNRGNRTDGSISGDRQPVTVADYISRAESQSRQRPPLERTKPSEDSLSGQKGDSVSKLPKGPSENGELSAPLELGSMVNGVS
UniProt Q13547: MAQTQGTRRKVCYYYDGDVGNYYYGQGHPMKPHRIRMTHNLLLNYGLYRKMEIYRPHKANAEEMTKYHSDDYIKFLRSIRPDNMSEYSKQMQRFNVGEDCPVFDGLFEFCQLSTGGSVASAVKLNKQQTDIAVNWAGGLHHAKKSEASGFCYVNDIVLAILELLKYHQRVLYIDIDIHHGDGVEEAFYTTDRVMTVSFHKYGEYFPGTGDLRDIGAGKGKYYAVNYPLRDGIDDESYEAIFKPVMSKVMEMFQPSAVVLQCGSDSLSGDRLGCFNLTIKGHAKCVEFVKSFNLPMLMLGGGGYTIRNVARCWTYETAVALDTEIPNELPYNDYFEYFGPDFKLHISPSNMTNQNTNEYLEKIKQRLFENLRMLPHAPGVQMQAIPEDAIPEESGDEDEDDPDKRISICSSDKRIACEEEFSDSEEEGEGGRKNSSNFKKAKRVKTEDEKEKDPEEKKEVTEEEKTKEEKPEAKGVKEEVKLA

Experiment [2] concerns the target T2, RNF157 (human (endogenous in THP-1-derived M0 macrophages)) (UniProt Q96PX1).
T2 sequence: T1 sequence
The experiment is described as follows: co-IP; M0 macrophage (PMA-treated THP-1) lysate; precipitated with anti-RNF157 (anti-IgG as control) and protein A/G beads, 4 hours at 4°C; western blot of the candidates.

Results are given in words; binding and its absence hold for the method and conditions named. Binding seen in cells or lysates may run through a third protein. Some binding calls cover weakened binding; strength is not graded here.

As to CHD1 (from UniProt O14646 1-1710), the binding result in experiment [1] is recorded as “binds weakly”. Take FXR2 (from UniProt P51116 1-673): the binding result in experiment [2] and in experiment [1] was “binds” in each case. Take HDAC1 (from UniProt Q13547 1-482): the binding entry in experiment [2] and in experiment [1] was “binds” each time.

B1: PLRG1 (protein, UniProt O43660 1-514)
chain: MVEEVQKHSVHTLVFRSLKRTHDMFVADNGKPVPLDEESHKRKMAIKLRNEYGPVLHMPTSKENLKEKGPQNATDSYVHKQYPANQGQEVEYFVAGTHPYPPGPGVALTADTKIQRMPSESAAQSLAVALPLQTKADANRTAPSGSEYRHPGASDRPQPTAMNSIVMETGNTKNSALMAKKAPTMPKPQWHPPWKLYRVISGHLGWVRCIAVEPGNQWFVTGSADRTIKIWDLASGKLKLSLTGHISTVRGVIVSTRSPYLFSCGEDKQVKCWDLEYNKVIRHYHGHLSAVYGLDLHPTIDVLVTCSRDSTARIWDVRTKASVHTLSGHTNAVATVRCQAAEPQIITGSHDTTIRLWDLVAGKTRVTLTNHKKSVRAVVLHPRHYTFASGSPDNIKQWKFPDGSFIQNLSGHNAIINTLTVNSDGVLVSGADNGTMHLWDWRTGYNFQRVHAAVQPGSLDSESGIFACAFDQSESRLLTAEADKTIKVYREDDTATEETHPVSWKPEIIKRKRF
In the case of B1, in experiment [1], the binding entry is recorded as “no binding”.
